From the supplement of paper PMC12632987 come the findings set out here.

Over roughly 1,800 sequences, “median log2 fold change of GCK-ALFA target abundance (FLAG IP / Myc IP barcode read proportion)” has its median near 0.14; the lowest 2% begin near -0.84. This is one part of the list.

Sequences and labels used below:
T1: TRAF2, Q12933
T1 chain: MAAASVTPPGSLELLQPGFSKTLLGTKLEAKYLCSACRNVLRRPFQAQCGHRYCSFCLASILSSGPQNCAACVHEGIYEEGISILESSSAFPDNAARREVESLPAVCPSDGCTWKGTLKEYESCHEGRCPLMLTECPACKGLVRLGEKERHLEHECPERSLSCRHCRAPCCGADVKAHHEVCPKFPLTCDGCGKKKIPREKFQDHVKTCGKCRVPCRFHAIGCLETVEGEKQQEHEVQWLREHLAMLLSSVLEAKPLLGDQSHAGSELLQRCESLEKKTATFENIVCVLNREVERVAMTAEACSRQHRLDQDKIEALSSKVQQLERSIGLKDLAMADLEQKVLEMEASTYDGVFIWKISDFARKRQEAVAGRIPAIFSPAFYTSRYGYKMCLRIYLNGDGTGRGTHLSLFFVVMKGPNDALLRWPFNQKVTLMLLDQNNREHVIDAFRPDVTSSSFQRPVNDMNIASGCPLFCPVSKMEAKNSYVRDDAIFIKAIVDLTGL

B1: traf2_out_20_3_2179 (protein)
chain: EELEEELEEELEEALELIKEAAKLADEETAKKLEELAERLKESRELSYEDRLVELSEIRRELLELAEAAKAAGKEELAAVLEEAAEELNEAMNLVYEIIE
B2: traf2_out_11_155_770 (protein)
chain: EEKLKINQELVDKNMEIRDEAIEKIRELILNDESLTEEEKKELLEILEKNKSLGLRTMAESLIRKALELGKEELAEKIREILEEAQKKMSEAAIEAEKKI
B3: traf2_out_20_3_2102 (protein)
chain: EELEKELEKEIEEALKLLEEAAKLADPETAARLKELAKRVEESRSLSPSDRLVELSEVRREVLALAQEAKAAGREELAAVLEEAAEELNEAMNLLYKIIE
B4: traf2_out_17_178_1697 (protein)
chain: SKEEIRKKISELTDKLIDLTDEYGTKLIAALKAEGVLTPEELARLEAALASGSNRTFLETAKEIIPKSAASAETKALLEEFEKEYKEISKKIAEAYEKYE
B5: traf2_out_13_95_1089 (protein)
chain: SKEVAEKIMEIADEMLEKSEKLLEELLKKAKEKGKLVEEVEEALRLARYRSINEAIALLEELAKKYPEFKEELEETIKKLKEIKREAGKKVAEILKKEEE
B6: traf2_out_18_167_1854 (protein)
chain: EEERRRRRRELSDRLVRLSEVKRAARALIQALRTDRAAAPAELARLRAAAAEVPELQPLVAAIEAALAAGDWAGALAGAEALIAEAQRLMNEAIRAYEKE
B7: traf2_out_19_16_1988 (protein)
chain: SEEEAKKLKEKMNEHLEKALKLAEEAVKNLEKLSREELMDKLVEISELVRKAKEYLQKYLELAKDKEEERKKVTEEYDEKLDKIQRLMTVIVKRIEELLK
B8: traf2_out_17_162_1641 (protein)
chain: SAAEELRKRLLEELERLEKELKELEEKSKKIDEYTKEELSDLIVEASEARRRARELIEEVDRNRSLLDPEEYEELKKRLEEIAERLNRIAQKFYDKYLEL
B9: traf2_out_5_189_2332 (protein)
chain: SEEEREREELREEAREAVEIANELLRLYTEEGLSPEEILARIREIAARLSPERANLLLGSTAALFEAYAISTGDEEARALAERVRELRRELLARRAAEAA
B10: traf2_out_17_178_1658 (protein)
chain: NKEEARKKISEATDKLIDLTRETAARLLAILEADGTASPEELAALREAQRLGSATTTLALLDRAVPRSPRAAEVAALRDDFRARSGELAKEIAEAYKEYE
B11: traf2_out_18_167_1850 (protein)
chain: EEEIRERRRELSDRLVELSEVVRAARAALQALDTDRSRVPAELARLEAAAASIPELQPLVAAARKALAAGDEAGLRATLEALIEKAQKLMNEVLKEYEAL
B12: traf2_out_13_95_1146 (protein)
chain: SKEVAEKIMEIADKMLEQKDAILDDLEAQLKAQGLLTPELEAALEEAKNSSISTAIHLLQELAKRYPEAKALLEAAIKQLQAIKTQAGKEVAKILKEEEE
B13: traf2_out_18_3_1903 (protein)
chain: KEEERKKLSDEIDKIVDEATAKAREVLDRLAERHPEVAERLARLRADLDAGGGAFGILEELAELAKELGDEELAKEIEEFLREKREKMQKLVDEYEKLIK
B14: traf2_out_6_166_2477 (protein)
chain: MEEEIERIKELAKKFDKYSPEVVIEAFEKVAKERDDRRARIARQLASAVRQAEKAGLPISTIITAYALGLIALGVPAEEIIELLEEILKEAEKIAKEKEK
B15: traf2_out_13_95_1140 (protein)
chain: SAETAAKIMAIADEMLEKSEAVLNELLEKAKKAGKLVEEIEEVLHLARYQSINEAIHKLKELAKKYPEFAEELNAAIEKLEAIRREAGRRVAEILKEEKE
B16: traf2_out_13_95_1162 (protein)
chain: DPETAKKIMEIADKMLDESLALLEELLKIAKEKGIAVEEIEEAIRAARYQSINEAIHLLEELAEKYPELKEELEATIEKLKALREKAGKEVAKILKEAEE
B17: traf2_out_16_104_1388 (protein)
chain: SAELDAKFEEIIKKLEEIAEEANKLMNELYQLYLKASPEDKEKISDALVEASELRREALEAAIEAKEMRKAGGDPEEAEKKLKELEARLKELKKKVEELK
B18: traf2_out_17_162_1655 (protein)
chain: SALEEQLAEIEEALRELEEETRRLREKLERISEYSKEELSDLMVEASEVKRRALELLQRIEELAPLLDPETAEELRRRLEEIIEEAQRIANEFYKEYEKK
B19: traf2_out_1_27_1001 (protein)
chain: SDEEERELLRRANREIGRASPEEQIEVIRRTLREALARGLDSPVHIATVLILSLGEPETRERALEAVEEVLREAGLPEEEIELLRRRVRSGFARLERLLA
B20: traf2_out_20_3_2256 (protein)
chain: SELREEALKELERAEKILKELEPKLPAEDAKALRDALKAAREALETDYSDALVEASELRRLALALAEKARAAGDEETAALLEELAEEMQRAAYYLSKIIE
B21: traf2_out_18_167_1852 (protein)
chain: EEEERERRRELSDRLVDLSEVKREARALIQALETDRSLAPAELAELEEAAKKVPELQPLVDKIRAALEAGDWEGARKAAEELIEKAQRLANEAIREYEAA
B22: traf2_out_15_180_1332 (protein)
chain: MTEEELEKRIELVAEVADEADERVREELAAAGVTSPEHLALARSGVRAVITHVFAGWEEEAEEVEEIVAARLPEELRPLFRRLVEEARRRAEEALERLKK
B23: traf2_out_9_17_2622 (protein)
chain: AEEREREREAILEAVEEVLKELVEKGYITEEEAEEILRRVREAIERGLSADEVRATFLGDIASILLFKKKYSVQEAQKIVGEAYRRFRRLMEERRARAAA
B24: traf2_out_13_95_1064 (protein)
chain: SRETAAKINALADEAEARALALLDAAREELADDPAIVAALDEARAAAETKGLRAAIHVLRQARAANPAHAEAFDALIAELEAIRRDLGRRVAEIIKEEKE
B25: traf2_out_1_27_1015 (protein)
chain: SDEELTKLIKETDKKIAEVSDEEAKKVVKEALKKAYELGPEDAMMLARTLIASQLDEERLKVIAEAAIEAFKELGFPEEEIERLRRIAESVLELNRKAKA
B26: traf2_out_11_169_871 (protein)
chain: KEAEFNRKLNDKALELNDKAKAELRAFAKELAKELGLDVAEVDAIFDAHKNSSLSAVAAALIAWFESKGEADAAAKILAKYEELKDEINKETSKFLKELE
B27: traf2_out_18_3_1902 (protein)
chain: KEEERKKLSDEIDKIVDEATAYARAVLDRLAAAHPEVAARLARLRADLEAGGGAFGILEALAELARELGEEELAEEIEEFIRKKRKEFQELVDKYEELIK
B28: traf2_out_18_167_1871 (protein)
chain: SEEMKKEYEELTDKLVYYSTVRRALLEILEALERSREEARALLEEKVAELPDSEVLKEALEVFETKSDEEFRAFLTSKAEELQKKANEAYKKLEELKKKM
B29: traf2_out_15_180_1327 (protein)
chain: MTEEELEKRIELANKVADAVQDKLAALLAAHPDLSEEEKAALRALARSLTTLLMNGEEEEAAAALAAAKARLSPRAAAVADELAAFAREVVAAAKKELAE

The target of the experiment is T1, TRAF2, Q12933. As to the kind of experiment: median log2 fold change of GCK-ALFA target abundance (FLAG IP / Myc IP barcode read proportion) (log2 ratio); each designed protein is fused to an ALFA-tag nanobody in HEK293 cells to bring the named protein to FLAG-tagged glucokinase (GCK); Myc marks an untargeted standard; higher = target protein stabilised (more abundant). The settings on record: target protein: 3xFLAG-MCP-GCK-ALFA reporter; HEK293 landing pad (RPLP). A digest of the protocol:
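Binders fused to an ALFA nanobody were recombined as a library into HEK293 landing-pad cells, which were induced with 2 μg mL^−1 doxycycline and then transfected to express a FLAG-tagged target and a Myc-tagged standard. After 48 h, circular RNA barcodes recovered by anti-FLAG and anti-Myc immunoprecipitation of lysates were reverse transcribed, amplified and sequenced. Each binder's target abundance is the median log2 ratio of FLAG to Myc barcode read proportions, from barcodes present at ≥10^−7 in both replicates, binders carrying ≥3 barcodes per replicate, a 10^−6 pseudocount and pooled replicates.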
B1: the “median log2 fold change” value is -0.145. Consider B2, for which the “median log2 fold change” value was found to be 0.295.

B3: the “median log2 fold change” value came out at 0.282. In the case of B4 it was 0.348; in that of B5, -0.749; in that of B6, -0.377. In the case of B7 it was -0.0165. In the case of B8 it was 0.177; in that of B9, -0.801. In the case of B10, the “median log2 fold change” value worked out at 0.191. In the case of B11 it was 0.197. For B12 the value was -0.587; for B13, 0.294; for B14, -0.362. For B15 the value was 0.0238; for B16, 0.0847; for B17, 0.392.

Consider B18, for which the “median log2 fold change” value worked out at 0.458. For B19 the value was 0.184.

B20: the “median log2 fold change” value turned out to be 0.278.

Consider B21, for which the “median log2 fold change” value amounted to 0.22. In the case of B22 it was -0.0893; in that of B23, -0.226. In the case of B24 it was -0.204; in that of B25, 0.412. For B26 the value was 0.0612. On to B27, for which the “median log2 fold change” value was 0.271.

B28: the “median log2 fold change” value amounted to 0.272. In the case of B29 it was 0.281.
